# According to article PMC4242493:
# Some of the results follow. The list includes weakly bound sequences.
# Molecular target: MaxL homodimer (UniProt P61244)
# Assay: universal protein-binding microarray (PBM)
# Conditions: PBS-based mixture, 10 nM His-tagged protein dimer, 2% milk, 200 ng/uL BSA, 50 ng/uL salmon testes DNA, 0.02% TX-100; detection with Alexa 488 anti-His …; high values mean tight binding; most listed sequences are background and not binding sites; double strand, one strand shown
# Chain of UniProt P61244 (P61244 whole entry): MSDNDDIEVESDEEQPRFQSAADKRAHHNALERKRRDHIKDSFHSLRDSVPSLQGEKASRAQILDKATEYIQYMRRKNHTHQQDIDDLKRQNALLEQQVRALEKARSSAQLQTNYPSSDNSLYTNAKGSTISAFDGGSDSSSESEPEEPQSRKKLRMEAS
row,Sequence,binding signal (normalized occupancy)
1,CGCGGGGC,0.0766
2,GTTGTTTA,0.0784
3,TGTAAAAA,0.0837
4,AACTACGC,0.0734
5,GTGTAGAA,0.0867
6,GCCTCGTA,0.0715
7,CCCTCTCA,0.0753
8,AATCCGAA,0.0699
9,GACGCACC,0.0708
10,ACCTTTAT,0.0781
11,CAGTCTGA,0.0736
12,AATCCGGA,0.0755
13,ACTTGAAT,0.0746
14,CCCTTATC,0.0746
15,CACACAAC,0.0831
16,AACTTTAT,0.0745
17,CGATGGTA,0.074
18,ATTATGCG,0.0831
19,AGTTCATG,0.0778
20,GTGGCTAA,0.0728
21,ATTGAGTG,0.0821
22,ACGGAAGT,0.0703
23,AGTATAAT,0.0774
24,CTAATCTA,0.075
25,AAGCAAGG,0.0721

row,Sequence,binding signal (normalized occupancy)
1,ACCTGGAC,0.0783
2,TCTGCCCA,0.0744
3,CGGAGGAA,0.0675
4,AACGAAGA,0.0711
5,TGTAGGAA,0.0767
6,CGATTTTC,0.0726
7,AATTATGT,0.0811
8,GGCAGGGA,0.0782
9,ATAATGCG,0.0847
10,GCGCACTA,0.0726
11,AATTCCCA,0.0839
12,GCAGAACC,0.0764
13,GATGTTGA,0.0826
14,ACAGACCG,0.075
15,ACTGGAAA,0.0733
16,GGGCTTTA,0.0699
17,ACGCGTCT,0.0797
18,GATCACGC,0.0977
19,ACAAGCTA,0.0725
20,CATGGGCC,0.0825
21,TGAAACCA,0.0777
22,AACATAAC,0.0778
23,ACGTAGGG,0.0764
24,CGGTCCTC,0.0699
25,AGCCGTAT,0.0707

row,Sequence,binding signal (normalized occupancy)
1,CATAAATA,0.0905
2,AGTCACGG,0.0774
3,ATCGTGCC,0.08
4,CCGACCCA,0.0764
5,CACTAAGC,0.0716
6,ATAATCGG,0.0725
7,AATTCTCC,0.0715
8,CTCTATTC,0.0729
9,GGAACCGA,0.0693
10,ACACGATG,0.0969
11,ATGAACAA,0.0807
12,AGTCCGTG,0.0793
13,ATCCATCG,0.0772
14,AGACCGGC,0.0685
15,AATTGAGC,0.0717
16,CAGGCCAA,0.0649
17,ACATGGGG,0.101
18,CGGTGTAC,0.0764
19,GTTAAAAC,0.0728
20,ACTCCTGG,0.0701
21,CGTCTGGA,0.0713
22,CAGTATCG,0.0741
23,CAAATGGA,0.0758
24,GTAGGGAA,0.0754
25,CACGGGCG,0.081

row,Sequence,binding signal (normalized occupancy)
1,GATCGATA,0.0847
2,ATTCCAGC,0.0738
3,GACCCCGA,0.0729
4,CCTAACTC,0.0729
5,CATCCCCC,0.0835
6,CATCCGCG,0.0845
7,ACATGGTA,0.104
8,GAGCTTCC,0.0662
9,AACAGGCG,0.0783
10,ATTCTGCA,0.0731
11,GGACTCAC,0.0732
12,CAAAGTTC,0.0716
13,AGTATCAT,0.0853
14,CGCCATTA,0.0739
15,GAATTATC,0.0819
16,GCCCCAAA,0.0667
17,CTATACAG,0.0822
18,ACGTTGAA,0.083
19,AATGCTCG,0.0783
20,AGATTCGC,0.079
21,CTCCCTAA,0.0737
22,TGTTCAAA,0.0769
23,ATGAAGAC,0.0744
24,CGCCTCCC,0.0717
25,CACTACTA,0.0788

row,Sequence,binding signal (normalized occupancy)
1,GATTGACC,0.0763
2,ATCAACCG,0.0737
3,AACATCAT,0.0847
4,AGCCAGAC,0.0684
5,ACTCTGGG,0.0689
6,CGACGACA,0.0764
7,CCTAAACA,0.0822
8,AAATGTAA,0.0834
9,CCAGTCGG,0.0704
10,CACGACAG,0.0802
11,TCAGGTCA,0.0755
12,AAGTTTAA,0.0727
13,AACTCTGG,0.0695
14,ACTTTCCA,0.0775
15,GCCCCCAC,0.0825
16,GGCCGTAA,0.0679
17,CTCACCTA,0.0723
18,CCGAATCG,0.0727
19,GGTGTATA,0.0848
20,AAAAATAA,0.0745
21,ATGATCCG,0.0801
22,CAAGCGCC,0.0701
23,CTTGGGAC,0.0664
24,ACAAGTCC,0.0711
25,AACGTTCA,0.0836

row,Sequence,binding signal (normalized occupancy)
1,AATGAGAT,0.0763
2,CGGATTCA,0.0802
3,GACGGTCA,0.0718
4,GGCCGTTA,0.0698
5,AATCTCCG,0.0702
6,ACGCCATG,0.102
7,CGAAAGAG,0.0688
8,ACTTACGA,0.0726
9,GAGTCTAA,0.07
10,CGGCATGC,0.109
11,GTGACTCA,0.0783
12,CTTCGCTA,0.0727
13,ATTTGTAA,0.0789
14,AAGGACTC,0.071
15,GCTGTTCA,0.0756
16,GGTCCATA,0.0786
17,ATCAAGCG,0.074
18,ACTGAATC,0.0726
19,ACATCTTC,0.0843
20,ACCGCCCA,0.0692
21,GTCATGCA,0.0869
22,AATAACGC,0.0797
23,CACTTGGA,0.0717
24,CCCCGTCC,0.0767
25,TAGCAGAA,0.0746

row,Sequence,binding signal (normalized occupancy)
1,ACTCCTCG,0.0738
2,AATACTAA,0.0796
3,ACAGCGCA,0.0692
4,AGTGGGTA,0.0721
5,ATCAGTCC,0.0762
6,ATCCTTTA,0.0763
7,ACGTTTGG,0.0806
8,ACCCCTAC,0.0867
9,GCGGCAGA,0.0734
10,ATCTAGAT,0.0728
11,ATTCCCGC,0.0772
12,AAGGCTTA,0.0721
13,CGCGCCCG,0.0682
14,CGCAGTAG,0.0689
15,CCTCGGAG,0.0661
16,GACGGTGC,0.0735
17,GTAACTTA,0.0742
18,CACTGATC,0.0773
19,AGGCGAGA,0.0696
20,ATCTATAG,0.0834
21,AATCATAT,0.0881
22,AGTGCGAT,0.0772
23,ATTTGCCA,0.076
24,GATGAACA,0.0757
25,CAATCACG,0.0875

row,Sequence,binding signal (normalized occupancy)
1,AAATCTGC,0.0724
2,AGTGAAGA,0.0699
3,TTATCCAA,0.0722
4,GGGAGTGA,0.0774
5,CAGTAAGC,0.0728
6,CCAATTCG,0.0738
7,CGGTAATC,0.0753
8,ACTAAGAA,0.0735
9,ACGATGTA,0.0819
10,CCCGGTCC,0.0685
11,AGATCCGA,0.0742
12,CTATAAGA,0.0839
13,AGTCAAAC,0.0698
14,ATGTCGAG,0.082
15,ATTGTAAG,0.0752
16,TCTGCCAA,0.0728
17,AGCAGAGA,0.0749
18,CAACCTTG,0.0747
19,AATTTCGA,0.0712
20,ATAGTGAT,0.0777
21,TACTTCGA,0.0724
22,ACCGACTG,0.0675
23,CAGTGTTA,0.0765
24,AGCAAGCG,0.0711
25,CTCACGGA,0.0748

row,Sequence,binding signal (normalized occupancy)
1,AGGTCAAT,0.0787
2,CTTTAGGC,0.0741
3,AATCTTAT,0.0745
4,CGAAGCTC,0.0658
5,GCCTCTGA,0.071
6,ACCACGAA,0.0771
7,ATTACTGG,0.0745
8,ACTGATCG,0.077
9,CAGTTGAG,0.0686
10,AGTAGGCC,0.0717
11,TCATGGCA,0.0816
12,GCAGGTCC,0.0729
13,ACGCGCGT,0.0896
14,TGGTCTAA,0.0714
15,GTTAACTA,0.0772
16,GTCTGTCA,0.0714
17,GCAAGAGC,0.0746
18,ACGCGGAT,0.0814
19,ACAGGCAA,0.0787
20,CCAACCGG,0.069
21,GTCGCTCA,0.0755
22,CCCAGGTA,0.08
23,GAAACCCC,0.078
24,ACTAACAA,0.0766
25,ACCGGTAG,0.0719

row,Sequence,binding signal (normalized occupancy)
1,GGAAGACC,0.0713
2,CATAAAGC,0.0734
3,GTAGTGAC,0.0722
4,CACATTCG,0.0806
5,CAGGGATC,0.0711
6,GAAGTTCC,0.0689
7,AAGCGGGC,0.0687
8,GCGGACAA,0.0734
9,AGATAGAG,0.0744
10,ATCGTTAG,0.0776
11,CACATTAG,0.0876
12,GGCGCAGA,0.0698
13,CAAGTACA,0.0797
14,GGCAGGTA,0.0755
15,ATATCGGC,0.0746
16,ATTTATAA,0.0772
17,CCATAACA,0.0834
18,CCTACACA,0.0861
19,CATACAGA,0.0796
20,CTTGACCA,0.0808
21,GAGCTTAA,0.0698
22,GGTGTAAC,0.074
23,ACTATGCA,0.0816
24,CTTCTGTA,0.0734
25,ACACCATA,0.0784

row,Sequence,binding signal (normalized occupancy)
1,ACATTTCC,0.0772
2,AATATAGT,0.0787
3,ATAGTCAA,0.0744
4,AATTCTAA,0.0742
5,AGATTTGA,0.0778
6,AAATCTAA,0.0765
7,GGATGGCA,0.0835
8,AGGACTTG,0.0674
9,AATACATA,0.0877
10,GCGAAAAC,0.0681
11,AACACCAC,0.082
12,GGCACAGA,0.0703
13,CCTGTGCC,0.0711
14,AAATCCGG,0.0683
15,GTGTAAAC,0.084
16,AGCCATAC,0.078
17,AAGTAACC,0.0745
18,ACGGCAAG,0.0727
19,ATCACCTG,0.0901
20,TACTACAA,0.0789
21,ATCACAGC,0.0808
22,AGTTACCA,0.0803
23,ATTCGAGG,0.0723
24,AATGAGGC,0.0776
25,ATATATAC,0.0839

row,Sequence,binding signal (normalized occupancy)
1,CCATGATA,0.0845
2,ACTATGGG,0.0779
3,ATTTGTCC,0.0771
4,ATACCACA,0.089
5,CACGTCAA,0.0816
6,ACCGCCAT,0.0822
7,ATGTGTGC,0.0957
8,CCAACAAC,0.0758
9,CCGGGCAC,0.0682
10,CAACCAAG,0.0759
11,GTGCACCA,0.0813
12,ACGTATAT,0.0827
13,ACCATTCA,0.085
14,CCATTCTA,0.0759
15,ACAGCTGT,0.077
16,AAATTACA,0.0754
17,GCATAGGC,0.0744
18,CAGTACGC,0.0725
19,CGCTTTAA,0.0696
20,GGGCTACA,0.0751
21,TCTATGAA,0.0694
22,CCTTAGGC,0.0728
23,CAGAGAAG,0.069
24,CACTTAAC,0.0724
25,ACGCTCAA,0.0699

row,Sequence,binding signal (normalized occupancy)
1,AGTCCTAT,0.0777
2,CCATTCCC,0.0738
3,CTAAGTGC,0.0724
4,CCATAGCG,0.0775
5,CTTTTCTC,0.0767
6,GAACTATA,0.0863
7,CAGTCCGA,0.0726
8,GCGTGCAC,0.109
9,ACCCGAGT,0.0687
10,CATGTTTC,0.0831
11,ATACCTTC,0.0788
12,ACGGGGGA,0.0872
13,AAAATACA,0.0824
14,AGCTAGGG,0.0743
15,ACAATGGA,0.0765
16,ACCCACGC,0.105
17,GTATAACA,0.085
18,CCCGAATC,0.0724
19,GAGGTACA,0.0818
20,AAGTGACC,0.0751
21,ACTATCAA,0.0737
22,ATGGAAGA,0.0759
23,ATTATTCA,0.0849
24,ACATCAAT,0.0847
25,AGGTGGAT,0.08

row,Sequence,binding signal (normalized occupancy)
1,GTGGCCGA,0.0781
2,ATCTGAAT,0.0792
3,ACGAGGAT,0.0859
4,CTAGCAGA,0.0658
5,ATTCGAAT,0.0762
6,ACTGGGAA,0.0718
7,ACGTGTGC,0.109
8,AGGAGGCA,0.0697
9,GGTTTAGA,0.073
10,GCGCCGCA,0.0796
11,GATATCCA,0.0802
12,ACGAATAT,0.0788
13,CACTGCCA,0.0766
14,GCTTCGTA,0.0728
15,GAAGAATC,0.0698
16,GGACCTCA,0.0767
17,CACTTGAG,0.0725
18,CAGAGTGA,0.0776
19,CAGTTAAA,0.0713
